Results reported in the RNAGym collection of RNA variant scans (doi:10.7554/elife.90254).
Read counts are not given, so values of variants with three or more changes are uncertain.

B1: LINE1-mini (parent)
chain: GGCAGAGCUCAACACAGCGUGGCAAAGUGGCUGUGGCUAGACUGCC

Variants of: B1
Test: self-cleavage, relative activity (ratio to wild type); higher = more cleavage; in vitro, sequencing; the parent is a self-cleaving ribozyme
In the case of GGCAGAGCUCAACACAGCGUGCCAAGGUGGCUGGGGCUAGUCUGCC, the self-cleavage is reported as 0.16. For GGCAGAGCUCAACACAGCGUGCCAAUAUGGCUGUGGCGAGACUGCC, the self-cleavage was 0.03. Work on GGCAGAGCUCAACACAGCGUGCCAAAGUGGCUGUGGCUUAACUGCC yielded a self-cleavage of 0.04. GGCAGAGCUCAACACAGCGUGCCAAAGUGGCUGUGGCUAGGAUGCC gave a self-cleavage of 0.03. In the case of GGCAGAGCUCAACACAGCGUGCAAAAGUGGCUGUGGCUGGACUGCC, the self-cleavage is reported as 0.07. In the case of GGCAGAGCUCAACACAGCGUGCAAAAGUGGCUGUGGCUAGACUCCU, the self-cleavage is reported as 0.17. For GGCAGAGCUCAACACAGCGUGCGAAAGUGGCUGUGGAUAGACUGCC, the self-cleavage was 0.05. Work on GGCAGAGCUCAACACAGCGUGCUAUAGUGGCUGUGGCUAGGCUGUC yielded a self-cleavage of 0.72. Work on GGCAGAGCUCAACACAGCGUGCCAAAGUGGCUGUGGUUAAACGGCC yielded a self-cleavage of 0.04. For GGCAGAGCUCAACACAGCGUGCCAAAUUGGCGGUGGCUAGAUGGCC, the self-cleavage was 0.01. GGCAGAGCUCAACACAGCGUGCCAAAGUUGCUGUGGCUAGACUGUU showed a self-cleavage of 0.13. For GGCAGAGCUCAACACAGCGUGCCAAAGUGGCUAUGACUAAACUGCC, the self-cleavage was 0.05. In the case of GGCAGAGCUCAACACAGCGUGCCAAAGUGGCUCUGGCUCGACUGCC, the self-cleavage is reported as 0.05. With GGCAGAGCUCAACACAGCGUGCCAAAGUGGCUUUGGCAAGACUGCC the self-cleavage was 0.02. GGCAGAGCUCAACACAGCGUGCCAAAGUGGCUGUUGCUAGACUGCU showed a self-cleavage of 0.09. For GGCAGAGCUCAACACAGCGUGCCAAAGUGGCUGUGAUUAGACUGCC, the self-cleavage was 0.06. For GGCAGAGCUCAACACAGCGUGCCAAAGAGGCUGUGGGUAGACUGCC, the self-cleavage was 0.04. GGCAGAGCUCAACACAGCGUGCCAAAGAGGCUGUGGCUAGACGGCC showed a self-cleavage of 0. Work on GGCAGAGCUCAACACAGCGUGCCAAAGCGGCUGUGGCUAGGCUGCC yielded a self-cleavage of 0.06. For GGCAGAGCUCAACACAGCGUGCCAAAGUGGCAGUGCCUAGAUUGCC, the self-cleavage was 0.04. Variant GGCAGAGCUCAACACAGCGUGCCAAAGUGGCUGUGGCCAGACUGCG has a self-cleavage of 1.5. In the case of GGCAGAGCUCAACACAGCGUGCCAAAGUGGCUGUGGCGAGAAUGCC, the self-cleavage is reported as 0.01. For GGCAGAGCUCAACACAGCGUGCCAAAGUGGCUGUGGCUAGACCGCG, the self-cleavage was 0.08. For GGCAGAGCUCAACACAGCGUGUCGAAGUGGCUGUGGCUAUACUGCC, the self-cleavage was 0.18. With GGCAGAGCUCAACACAGCGUGUCUAAAUGGCUGUGGCUAGACUGAC the self-cleavage was 2.22. GGCAGAGCUCAACACAGCGUGUCUAACUGGCUGUGGCUAGACUGCC gave a self-cleavage of 0.55. Variant GGCAGAGCUCAACACAGCGUGUCACAGUGGGUGUGGCUAGACUGCC has a self-cleavage of 0.11. In the case of GGCAGAGCUCAACACAGCGUGUCAGAGUGGCUGUGGCGAGACUGAC, the self-cleavage is reported as 0.01. GGCAGAGCUCAACACAGCGUGUCAUAGUGGCUGUGUCUAGACUGCC showed a self-cleavage of 0.03. GGCAGAGCUCAACACAGCGUGUCAUAGUGGCCGGGGCUAGUCUGCG showed a self-cleavage of 0. Variant GGCAGAGCUCAACACAGCGUGUCAAGGUCGCUGUGCCUAGACUGCC has a self-cleavage of 0.02. For GGCAGAGCUCAACACAGCGUGUCAAGGCGGCUGUGGCCAGACUGCC, the self-cleavage was 0.46. Variant GGCAGAGCUCAACACAGCGUGUAAAAGUGGAUGUGGAUAGACUGCC has a self-cleavage of 0.07. GGCAGAGCUCAACACAGCGUGUAAAAGUGGCUGUGGCUAGACUGAC gave a self-cleavage of 1.96. In the case of GGCAGAGCUCAACACAGCGUGUAAAAUUGGGUGUGGCUAGACUGCC, the self-cleavage is reported as 0.19. Work on GGCAGAGCUCAACACAGCGUGUAAAAGUGGCUGUGGCUAGACUUCU yielded a self-cleavage of 0.17. GGCAGAGCUCAACACAGCGUGUGAACGUGGCUGUGGCUAGACUGCC gave a self-cleavage of 0.71. Variant GGCAGAGCUCAACACAGCGUGUGAAAGAGGCUGUGGCUAGACUGCC has a self-cleavage of 0.35. GGCAGAGCUCAACACAGCGUGUCAAAGUGGAUGUGGCUAGACUGCA gave a self-cleavage of 0.1. GGCAGAGCUCAACACAGCGUGUCAAAGUGGAUGUGGCUACACUGGC showed a self-cleavage of 0.03. GGCAGAGCUCAACACAGCGUGUCAAAGUGGGUGUGGCCUGACUGCC showed a self-cleavage of 0.1. For GGCAGAGCUCAACACAGCGUGUCAAAGUGGCUGUGGUUAUACUGAC, the self-cleavage was 0.02. With GGCAGAGCUCAACACAGCGUGUCAAAGUGGCUGUGGCUAGACUGGA the self-cleavage was 0.27. Work on GGCAGAGCUCAACACAGCGUGUCAAAAUGGAUGUGGCUAGACGGUC yielded a self-cleavage of 0.8. With GGCAGAGCUCAACACAGCGUGUCAAAAUGGCUGUGGCUAGACUCCC the self-cleavage was 0.47. With GGCAGAGCUCAACACAGCGUGUCAAACGGGCUGUGGCUAAACUGCC the self-cleavage was 0.07. With GGCAGAGCUCAACACAGCGUGUCAAAUUGGCUGUGGCUAGGCUGCC the self-cleavage was 0.58. GGCAGAGCUCAACACAGCGUGUCAAAGUCGCUGUGGCUAGACAGCC gave a self-cleavage of 0.03. With GGCAGAGCUCAACACAGCGUGUCAAAGUUGCUGUGGCUAGAAUGCC the self-cleavage was 0.42. Variant GGCAGAGCUCAACACAGCGUGUCAAAGUUGCUGUGGCUAUACUGCC has a self-cleavage of 0.09. With GGCAGAGCUCAACACAGCGUGUCAAAGUGCCUGUGGCGAGACUGCA the self-cleavage was 0.01. With GGCAGAGCUCAACACAGCGUGUCAAAGUGCCUGUGGCUAGACCGCC the self-cleavage was 0.24. GGCAGAGCUCAACACAGCGUGUCAAAGUGGCUCUGGCUAGAAUGCC showed a self-cleavage of 0.04. With GGCAGAGCUCAACACAGCGUGUCAAAGUGGCUUUGGCUCGACUGCC the self-cleavage was 0.16. Work on GGCAGAGCUCAACACAGCGUGUCAAAGUGGCUGUGACUAGUCUGCC yielded a self-cleavage of 0.2. GGCAGAGCUCAACACAGCGUGUCAAAGUGGCUGUGUCUAGACCGCC showed a self-cleavage of 0.03.
